About 550 (1.1%) of roughly 48,000 compounds were called active. Not shown: some 4% with an inconclusive outcome. Cut-off read from the data, not from the text of the source: active = potency below about 15 µM; inconclusive = mostly about 16 µM to 33 µM; inactive = weaker than that. This is one part of the list.
target: Lysosomal acid glucosylceramidase (Homo sapiens) (UniProt P04062); experiment: Glucocerebrosidase; conditions: purified enzyme, resorufin glucoside fluorescence (screen aimed at inhibitors), 20 min;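 note: the screen sought inhibitors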
Sequence of UniProt P04062 (P04062 whole entry, looked up): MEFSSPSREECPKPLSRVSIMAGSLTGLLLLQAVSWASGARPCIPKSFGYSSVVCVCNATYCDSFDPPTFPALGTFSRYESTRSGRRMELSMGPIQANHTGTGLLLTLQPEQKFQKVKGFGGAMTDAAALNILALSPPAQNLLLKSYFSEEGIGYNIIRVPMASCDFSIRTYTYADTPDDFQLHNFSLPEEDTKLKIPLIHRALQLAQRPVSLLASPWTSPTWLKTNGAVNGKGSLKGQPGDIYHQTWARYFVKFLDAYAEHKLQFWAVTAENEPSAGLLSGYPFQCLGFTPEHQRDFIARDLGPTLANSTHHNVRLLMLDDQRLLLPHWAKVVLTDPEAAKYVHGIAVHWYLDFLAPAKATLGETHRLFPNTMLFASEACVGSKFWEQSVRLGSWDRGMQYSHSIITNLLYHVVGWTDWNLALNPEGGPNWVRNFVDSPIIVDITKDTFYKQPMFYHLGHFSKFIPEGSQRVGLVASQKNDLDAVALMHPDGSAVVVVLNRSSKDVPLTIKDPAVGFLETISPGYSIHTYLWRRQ
How it was run: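 Normal human glucocerebrosidase (0.2 nM final) was assayed with resorufin β-D-glucopyranoside (30 uM final) in 50mM citric acid/KH2PO4, 10mM sodium taurocholate, 0.01% tween-20, pH 5.9. Compounds were titrated; fluorescence (Ex 548, Em 600) read after 20 min at RT.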
Potency is the fitted concentration of half-maximal effect.

Row | SMILES | Potency
1 | CCOC(=O)C1CCN(C(=O)CCCN2C(=O)c3ccccc3C2=O)CC1 | inactive: > 76.9 µM
2 | Cc1noc(/C=C/c2ccco2)c1S(=O)(=O)N1CCC(C(=O)N(C)Cc2ccccc2)CC1 | inactive: > 76.9 µM
3 | Cc1nc2sccn2c1P(c1c(C)nc2sccn12)c1c(C)nc2sccn12 | inactive: > 76.9 µM
4 | Cc1cc2ncn(C(=O)c3ccc4c(c3)OCO4)c2cc1C | inactive: > 76.9 µM
5 | CCN(CC)c1nc2cc(OC)ccc2cc1C#N | inactive: > 76.9 µM
6 | Cc1cc(C(=O)N2CCc3ccccc32)c2cc(F)ccc2n1 | inactive: > 76.9 µM
7 | NC(=O)C1(N2CCCCC2)CCN(C(=O)CSc2nc3ccccc3o2)CC1 | inactive: > 76.9 µM
8 | Cc1cc(C)c2c(N)c(C(=O)NCc3ccco3)sc2n1 | inactive: > 76.9 µM
9 | O=C1CSC(=NC2CCCCC2)N1 | inactive: > 76.9 µM
10 | O=C(c1cccs1)N1CCN(C(=O)c2ccco2)c2ccccc2C1 | inactive: > 76.9 µM
11 | Cc1cc(N2CCCCC2)nc(SCC(=O)c2ccccc2)n1 | inactive: > 76.9 µM
12 | O=C(Nc1sc2c(c1C(=O)NCc1cccnc1)CCCC2)c1ccco1 | inactive: > 76.9 µM
13 | O=C1CC(N2CCC(c3nc4ccccc4o3)CC2)C(=O)N1Cc1cccs1 (centres undefined) | inactive: > 76.9 µM
14 | COCCOC(=O)C1=C(C)N=C2SCCC(=O)N2C1c1cc(Br)ccc1OC (centres undefined) | inactive: > 76.9 µM
15 | O=CNCC(=O)NC1CCCCCC1 | inactive: > 76.9 µM
16 | CC(=O)OCP(C)(=O)COC(C)=O | inactive: > 76.9 µM
17 | O=c1cc(N2CCN(c3cccc(Cl)c3)CC2)[nH]c(=O)n1C1CCCCC1 | inactive: > 76.9 µM
18 | CCOC(=O)C1(Cc2ccc(O)cc2)NC(c2ccccc2F)C2C(=O)N(C)C(=O)C21 (centres undefined) | inactive: > 76.9 µM
19 | CCOC(=O)C(C)Sc1nc2ccccc2c(=O)n1CC (centres undefined) | inactive: > 76.9 µM
20 | CC(C)(C)CC(=O)Nc1nnc(-c2cccs2)s1 | inactive: > 76.9 µM

Row | SMILES | Potency
21 | COc1ccccc1CNC(=O)C(C)NS(=O)(=O)c1ccccc1 (centres undefined) | inactive: > 76.9 µM
22 | O=C1c2ccccc2C(=O)N1Cc1nc(-c2ccncc2)no1 | inactive: > 76.9 µM
23 | CC(=O)N1CCc2cc(S(=O)(=O)CCC(=O)NCc3cccs3)ccc21 | inactive: > 76.9 µM
24 | [O-]/[N+](=C/c1ccc(F)cc1)c1ccccc1 | inactive: > 76.9 µM
25 | OC(CN1CCCCC1)Cn1c(C(F)(F)F)nc2ccccc21 (centres undefined) | inactive: > 76.9 µM
26 | Cc1cc(N)c(-n2cc3c(=O)n(C)c(=O)n(C)c3c2)cc1C | inactive: > 76.9 µM
27 | C=CCn1c(SCC(=O)Nc2ccc(C)cc2C)nnc1-c1cccnc1 | inactive: > 76.9 µM
28 | N=c1n(Cc2ccc(Cl)cc2)c2ccccc2n1CC(O)c1ccco1 (centres undefined) | inactive: > 76.9 µM
29 | FC(F)(F)c1ccc(N2CCN(c3cc(-c4ccccc4)nc4ncnn34)CC2)nc1 | inactive: > 76.9 µM
30 | Cc1nc(S(=O)(=O)N(C)Cc2ccccc2)c(C#N)c(C)c1Cl | inactive: > 76.9 µM
31 | COc1ccc2nc(C)[nH]c(=O)c2c1 | inactive: > 76.9 µM
32 | Cc1ccc(C(=O)Nc2nncs2)cc1S(=O)(=O)N1CCOCC1 | inactive: > 76.9 µM
33 | COCc1cc(C)nc(NC2CCCCC2)c1C#N | inactive: > 76.9 µM
34 | Cc1ccc(S(=O)(=O)N(C)CCCC(=O)n2nc(C)cc2C)cc1 | inactive: > 76.9 µM
35 | Nc1nc(CN2CCN(c3ccccc3F)CC2)nc(Nc2ccccc2)n1 | active: 2.32 µM
36 | O=C(Nc1cccc(Oc2c(F)c(F)c(F)c(F)c2F)c1)N1C[C@@H]2C[C@@H](C1)c1cccc(=O)n1C2 | inactive: > 76.9 µM
37 | O=C(O)CCc1nc(-c2cccs2)no1 | inactive: > 76.9 µM
38 | Cc1ccc2cc(C(c3nnnn3C3CCCC3)N3CCOCC3)c(=O)[nH]c2c1C (centres undefined) | inactive: > 76.9 µM
39 | CCOc1cc(NC(=O)c2cnccn2)c(OCC)cc1NC(=O)c1ccc(OC)cc1 | inactive: > 76.9 µM
40 | COc1ccc(OC)c(NC(=O)CSc2nc(C)cs2)c1 | inactive: > 76.9 µM

Row | SMILES | Potency
41 | COc1ccc(C(=O)Nn2c(C)ccc2C)cc1OC | inactive: > 76.9 µM
42 | CCCn1c(N)c(C(=O)COC(=O)c2c(C)noc2C)c(=O)n(C)c1=O | inactive: > 76.9 µM
43 | COC(=O)c1ccc(C2CC(=O)Nc3cc(OC)c(OC)cc32)cc1 (centres undefined) | inactive: > 76.9 µM
44 | O=C1CC(Sc2nnc(-c3ccccc3O)o2)C(=O)N1c1ccccc1 (centres undefined) | inactive: > 76.9 µM
45 | CC(=O)/C=C(/C)NC(Cc1c[nH]c2ccccc12)C(=O)O (centres undefined) | inactive: > 76.9 µM
46 | Cc1ccccc1OCC(=O)Nc1ccc2c(c1)COC2=O | inactive: > 76.9 µM
47 | Cn1c(SCc2ccccc2Cl)nnc1-c1cnccn1 | inactive: > 76.9 µM
48 | Cc1c(CNC(=O)c2cnn3c2NC(c2ccc(Br)cc2)CC3C(F)(F)F)cnn1C (centres undefined) | inactive: > 76.9 µM
49 | O=C(CCC(=O)N1CCN(S(=O)(=O)c2ccccc2)CC1)NC1CCCc2ccccc21 (centres undefined) | inactive: > 76.9 µM
50 | COc1ccccc1CN1C(=O)c2ccncc2C1=O | inactive: > 76.9 µM
51 | O=C(OCC(=O)N1CCN(c2ccccc2)CC1)c1ccco1 | inactive: > 76.9 µM
52 | CN(C)CCNC(=O)Cn1nc(-c2ccc(Cl)cc2)ccc1=O | inactive: > 76.9 µM
53 | COc1ccc2nc3c(cc2c1)c(NC(=O)C1CCCO1)nn3CC(C)C (centres undefined) | inactive: > 76.9 µM
54 | COc1ccc(NC(=O)N2CCCC2)cc1OC | inactive: > 76.9 µM
55 | O=S(=O)(NC1CCCCC1)c1ccc(S(=O)(=O)N2CCN3CCCC3C2)cc1 (centres undefined) | inactive
56 | CC(=O)c1c(C(C)=O)c(C)n(CCCCn2c(C)c(C(C)=O)c(C(C)=O)c2C)c1C | inactive: > 76.9 µM
57 | O=S(NCc1ccco1)C12CC3CC(CC(C3)C1)C2 (centres undefined) | inactive: > 76.9 µM
58 | Cc1cc(C)n2nc(Cc3ccccc3)nc2n1 | inactive: > 76.9 µM
59 | COc1cc(NS(=O)(=O)c2ccc(Br)s2)cc(OC)c1 | inactive: > 76.9 µM

— PubChem BioAssay AID360 (National Center for Advancing Translational Sciences (NCATS), 2006)
